Measurements as given in the supplement of paper PMC4604168 (melanoma cell lines).
The other results are listed elsewhere or left out. Repeats are few or missing, and single values can be far off.

Columns and labels:
Assay in all cases: cell count relative to DMSO control; melanoma cells; higher = more viable cells
Details in all cases: library dose: low library concentration; 72 h
[1] = tested on: COLO792
[2] = tested on: COLO800
[3] = tested on: COLO829
[4] = tested on: G361
[5] = tested on: IPC-298
[6] = tested on: IST-MEL1
[7] = tested on: LB2518-MEL
[8] = tested on: LOXIMVI
[9] = tested on: MEL-HO
[10] = tested on: MZ2-MEL
[11] = tested on: MeWo
[12] = tested on: RPMI7951
[13] = tested on: RVH-421
[14] = tested on: SkMel28
[15] = tested on: SkMel2
[16] = tested on: SkMel30
[17] = tested on: SkMel5
[18] = tested on: UACC257
[19] = tested on: UACC62
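Also: cell number obtained by counting DAPI-stained nuclei in high-throughput microscope images with image analysis software, screen run in 1,536-well plates.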

SMILES | cell count [1] [%] | cell count [2] [%] | cell count [3] [%] | cell count [4] [%] | cell count [5] [%] | cell count [6] [%] | cell count [7] [%] | cell count [8] [%] | cell count [9] [%] | cell count [10] [%] | cell count [11] [%] | cell count [12] [%] | cell count [13] [%] | cell count [14] [%] | cell count [15] [%] | cell count [16] [%] | cell count [17] [%] | cell count [18] [%] | cell count [19] [%]
O=c1[nH]nc(Sc2ncc([N+](=O)[O-])s2)n1-c1ccc2c(c1)OCCO2 + O=C(O)c1ccc(-c2c[nH]c3ncc(-c4ccccc4)cc23)cc1C1CCCC1 [GSK650394] (first compound 0.2 µM, partner dose 0.16 µM) | 104 | 89.2 | 106 | 97.7 | 101 | 90.6 | 125 | 70.8 | 92.1 | 105 | 98.3 | 124 | 99.8 | 95 | 103 | 107 | 100 | 81 | 102
CC1(C)NC(=O)N(c2ccc([N+](=O)[O-])c(C(F)(F)F)c2)C1=O [nilutamide] + COc1cc2c(Oc3ccc4[nH]c(C)cc4c3F)ncnc2cc1OCCCN1CCCC1 [cediranib] (first compound 1 µM, partner dose 0.4 µM) | 86.7 | 110 | 96.3 | 106 | 97 | 115 | 96.2 | 74.5 | 95.7 | 108 | 100 | 114 | 90.6 | 97.1 | 95 | 102 | 96.9 | 82 | 79.8
COc1cc(Nc2ncc(F)c(Nc3ccc4c(n3)NC(=O)C(C)(C)O4)n2)cc(OC)c1OC [Tamatinib] + C=CCn1c(=O)c2cnc(Nc3ccc(N4CCN(C)CC4)cc3)nc2n1-c1cccc(C(C)(C)O)n1 [MK1775] (first compound 0.4 µM, partner dose 0.02 µM) | 60.6 | 79.4 | 76.2 | 87.3 | 83.8 | 91.5 | 78.3 | 72 | 94.2 | 94.1 | 88.6 | 74.9 | 81.6 | 78.3 | 84.7 | 97.4 | 81.8 | 72 | 79.7
O=c1[nH]nc(Sc2ncc([N+](=O)[O-])s2)n1-c1ccc2c(c1)OCCO2 + COc1cc2ncnc(Nc3ccc(Oc4ccccc4)cc3)c2cc1OC [SrcI1] (first compound 0.2 µM, partner dose 2 µM) | 109 | 96.9 | 127 | 102 | 98.1 | 89.1 | 134 | 119 | 85 | 100 | 102 | 109 | 110 | 86.6 | 113 | 107 | 117 | 108 | 105
C[C@@H]1CCN(C(=O)CC#N)C[C@@H]1N(C)c1ncnc2[nH]ccc12 + CN(C)S(=O)(=O)c1ccc2c(c1)/C(=C/c1cc3c([nH]1)CCCC3)C(=O)N2 [SU6656] (first compound 1 µM, partner dose 0.4 µM) | 80.5 | 147 | 71 | 83.7 | 100 | 93.2 | 83.1 | 91.8 | 91.8 | 103 | 100 | 104 | 70.1 | 84.5 | 92.7 | 111 | 93.8 | 92.4 | 83.1
O=c1[nH]nc(Sc2ncc([N+](=O)[O-])s2)n1-c1ccc2c(c1)OCCO2 + OCCn1cc(-c2cnc3nnn(Cc4ccc5ncccc5c4)c3n2)cn1 [PF04217903] (first compound 0.2 µM, partner dose 1 µM) | 98.2 | 98.1 | 102 | 102 | 101 | 95.1 | 96 | 79.7 | 103 | 105 | 98.3 | 94.3 | 100 | 93.9 | 93.1 | 121 | 101 | 84 | 102
Cn1cncc1[C@@](N)(c1ccc(Cl)cc1)c1ccc2c(c1)c(-c1cccc(Cl)c1)cc(=O)n2C [tipifarnib] + CN(C)S(=O)(=O)c1ccc2c(c1)/C(=C/c1cc3c([nH]1)CCCC3)C(=O)N2 [SU6656] (first compound 0.01 µM, partner dose 0.4 µM) | 71.4 | 95.9 | 73.4 | 94 | 90.6 | 95.3 | 70.5 | 123 | 94.2 | 103 | 94.9 | 79.6 | 96.4 | 75.3 | 86.7 | 97.8 | 99.5 | 82.7 | 66.2
COc1cc(Nc2ncc(F)c(Nc3ccc4c(n3)NC(=O)C(C)(C)O4)n2)cc(OC)c1OC [Tamatinib] + O=C(Nc1cccc(Cl)c1)Nc1ncc(CCNc2ncnc3ccsc23)s1 [SNS314] (first compound 0.4 µM, partner dose 0.0008 µM) | 61.1 | 67.9 | 64.3 | 83.7 | 86.5 | 99.2 | 74.5 | 59.3 | 98.4 | 93.8 | 82.4 | 85.2 | 101 | 71.1 | 93.2 | 80.3 | 98 | 54.2 | 72.9
O=C(Nc1cccc(Cl)c1)Nc1ncc(CCNc2ncnc3ccsc23)s1 + Cn1cncc1[C@@](N)(c1ccc(Cl)cc1)c1ccc2c(c1)c(-c1cccc(Cl)c1)cc(=O)n2C [tipifarnib] (first compound 0.0008 µM, partner dose 0.01 µM) | 83.5 | 105 | 94.2 | 88.4 | 99.4 | 87.6 | 72.4 | 77.8 | 98.9 | 103 | 102 | 85.8 | 92.3 | 83.8 | 80.9 | 105 | 109 | 69.9 | 66.5
O=c1[nH]nc(Sc2ncc([N+](=O)[O-])s2)n1-c1ccc2c(c1)OCCO2 + Oc1cc(-c2nc(-c3ccccc3)[nH]c2-c2ccncc2)ccc1Cl [L779450] (first compound 0.2 µM, partner dose 0.2 µM) | 118 | 104 | 133 | 104 | 95.5 | 95.5 | 77.4 | 109 | 101 | 79.7 | 95.6 | 113 | 80.4 | 93.4 | 93.4 | 118 | 109 | 84.4 | 68.4
O=c1[nH]nc(Sc2ncc([N+](=O)[O-])s2)n1-c1ccc2c(c1)OCCO2 + O=C(Nc1ccccc1)c1cc([N+](=O)[O-])ccc1Cl [GW9662] (first compound 0.2 µM, partner dose 2 µM) | 106 | 114 | 86.9 | 90.5 | 102 | 99.4 | 104 | 63.4 | 85.3 | 103 | 96.2 | 99.8 | 108 | 91 | 108 | 104 | 96.1 | 78.3 | 75.7
O=C(O)c1ccc(-c2c[nH]c3ncc(-c4ccccc4)cc23)cc1C1CCCC1 + CN(NC(=O)CC(=O)NN(C)C(=S)c1ccccc1)C(=S)c1ccccc1 [STA4783] (first compound 0.16 µM, partner dose 0.006 µM) | 67.1 | 68.3 | 52.2 | 66.8 | 97 | 50.2 | 64.4 | 46.6 | 68 | 95.7 | 87.9 | 105 | 97.3 | 83.8 | 94.1 | 86.8 | 108 | 79.8 | 81.4
COc1cc(Nc2ncc(F)c(Nc3ccc4c(n3)NC(=O)C(C)(C)O4)n2)cc(OC)c1OC [Tamatinib] + NCC(=O)Nc1ccc(-n2nc(C(F)(F)F)cc2-c2ccc3c(ccc4ccccc43)c2)cc1 [OSU03012] (first compound 0.4 µM, partner dose 1 µM) | 70.6 | 78.5 | 74.3 | 87.8 | 84.4 | 84.6 | 60.6 | 268 | 82.2 | 90.6 | 61.6 | 95.3 | 87 | 76 | 77.8 | 0.197 | 72.3 | 66.1 | 87.6
O=c1[nH]nc(Sc2ncc([N+](=O)[O-])s2)n1-c1ccc2c(c1)OCCO2 + COc1cc(N2CCC(N3CCN(C)CC3)CC2)ccc1Nc1ncc(Cl)c(Nc2ccccc2S(=O)(=O)C(C)C)n1 [NVP-TAE684] (first compound 0.2 µM, partner dose 0.08 µM) | 107 | 65.6 | 87.7 | 100 | 114 | 109 | 95 | 93.8 | 97 | 98.9 | 89 | 85.3 | 110 | 86.5 | 90.6 | 129 | 97.6 | 87.9 | 75.7
C[C@@H]1CCN(C(=O)CC#N)C[C@@H]1N(C)c1ncnc2[nH]ccc12 + Cn1cncc1[C@@](N)(c1ccc(Cl)cc1)c1ccc2c(c1)c(-c1cccc(Cl)c1)cc(=O)n2C [tipifarnib] (first compound 1 µM, partner dose 0.01 µM) | 84.3 | 112 | 108 | 105 | 90.5 | 93.1 | 97.8 | 92.6 | 110 | 103 | 96.9 | 97.5 | 99.2 | 106 | 86.4 | 108 | 97.1 | 76.9 | 67.4
O=C(O)c1ccc(-c2c[nH]c3ncc(-c4ccccc4)cc23)cc1C1CCCC1 + NCC(=O)Nc1ccc(-n2nc(C(F)(F)F)cc2-c2ccc3c(ccc4ccccc43)c2)cc1 [OSU03012] (first compound 0.16 µM, partner dose 1 µM) | 105 | 81.5 | 103 | 95.8 | 95.7 | 86.6 | 104 | 95 | 93.1 | 101 | 65.6 | 96 | 86.4 | 77.6 | 88.4 | 55.5 | 102 | 88.1 | 93.2
O=c1[nH]nc(Sc2ncc([N+](=O)[O-])s2)n1-c1ccc2c(c1)OCCO2 + Cc1cc([N+](=O)[O-])ccc1NS(=O)(=O)c1cc(Cl)ccc1Cl [FH535] (first compound 0.2 µM, partner dose 1 µM) | 96.9 | 93.7 | 136 | 93.4 | 98.4 | 91 |  | 114 | 94.9 |  | 97.8 | 102 | 87.5 | 96.2 |  | 91.5 | 94.7 | 107 | 98
O=c1[nH]nc(Sc2ncc([N+](=O)[O-])s2)n1-c1ccc2c(c1)OCCO2 + NCC(=O)Nc1ccc(-n2nc(C(F)(F)F)cc2-c2ccc3c(ccc4ccccc43)c2)cc1 [OSU03012] (first compound 0.2 µM, partner dose 1 µM) | 96.9 | 90.2 | 85.1 | 91.4 | 84.6 | 96.3 | 106 | 109 | 91.6 | 97 | 53.1 | 111 | 92.5 | 83.8 | 50.9 | 57.4 | 85.1 | 118 | 106
O=c1[nH]nc(Sc2ncc([N+](=O)[O-])s2)n1-c1ccc2c(c1)OCCO2 + COc1cc(Nc2ncc(F)c(Nc3ccc4c(n3)NC(=O)C(C)(C)O4)n2)cc(OC)c1OC [Tamatinib] (first compound 0.2 µM, partner dose 0.4 µM) | 59.5 | 48.5 | 95.9 | 103 | 80 | 99.1 | 90.9 | 48.3 | 93.8 | 93.8 | 93.8 | 80.8 | 101 | 85.1 | 94.1 | 78.9 | 104 | 73.7 | 88
O=c1[nH]nc(Sc2ncc([N+](=O)[O-])s2)n1-c1ccc2c(c1)OCCO2 + C=CCn1c(=O)c2cnc(Nc3ccc(N4CCN(C)CC4)cc3)nc2n1-c1cccc(C(C)(C)O)n1 [MK1775] (first compound 0.2 µM, partner dose 0.02 µM) | 99.4 | 63.5 | 104 | 88.8 | 98.6 | 98.1 |  | 97.3 | 103 |  | 97.1 | 89 | 87.4 | 93.4 |  | 87.9 | 83.6 | 85.8 | 81.2
